# In the supplement of paper PMC3334620:
# Over roughly 33,000 sequences, “E-score (-0.5 to 0.5)” has its median near -0.04; the highest 2% begin near 0.36. The list shows a part of the results.
# Biological target: T1, Hmlalpha2 (UniProt P0CY09)
# T1 sequence: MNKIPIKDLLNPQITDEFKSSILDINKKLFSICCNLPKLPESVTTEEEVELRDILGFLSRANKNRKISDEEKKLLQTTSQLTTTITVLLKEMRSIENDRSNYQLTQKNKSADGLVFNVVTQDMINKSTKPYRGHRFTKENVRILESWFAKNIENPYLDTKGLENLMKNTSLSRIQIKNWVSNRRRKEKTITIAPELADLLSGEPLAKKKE
# Experiment: PBM E-score (8-mer binding enrichment) (E-score (-0.5 to 0.5)); higher = stronger / more preferred TF binding; most listed sequences are background and not binding sites
# Settings: protein concentration: 200 nM; construct: GST-full length
# Protocol: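 Universal 'all 10-mer' protein binding microarrays (Agilent AMADID 015681) probed with GST-tagged S. cerevisiae TFs (full-length or DBD) made by in vitro transcription/translation (PURExpress), about 100-200 nM. Bound TF was detected with fluorescent anti-GST. Each ungapped 8-mer (which stands for itself and its reverse complement) is scored by the PBM enrichment score (E-score), a modified Wilcoxon-Mann-Whitney statistic from -0.5 to +0.5, computed with the Universal PBM Analysis Suite. Scale: above 0.35 generally sequence-specific binding.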
row,Sequence,PBM E-score
1,GCTCCCCC,-0.347
2,GAACTCTA,0.123
3,CGTTGGGC,-0.0645
4,GGAGCGAC,-0.153
5,AGCCGCAC,-0.201
6,CATCGTTC,-0.00732
7,AACGTCAG,-0.0545
8,AACGCTGT,0.203
9,ATTAGGGC,-0.0913
10,AATATCCC,-0.213
11,CAAATGCG,-0.014
12,ATTGAACC,-0.0042
13,GCAGTTAA,0.0406
14,ATTCCTTG,-0.0643
15,TCCTACCA,-0.318
16,GAAGGAAA,-0.0488
17,TGAGGGCA,-0.284
18,GGGTCAAC,-0.0284
19,GGGTTCGA,-0.248
20,ACATCTAC,0.32
21,CTCATTGC,0.00494
22,GAATTTCA,0.0247

row,Sequence,PBM E-score
1,CCCTCTCG,-0.297
2,CCAGGCAC,-0.122
3,TTCGGAAA,-0.091
4,CAACCAAC,-0.0457
5,AGCCTCCA,-0.398
6,ATTAGATA,0.0792
7,CGCCCTTC,-0.155
8,CCTGACGA,-0.0138
9,CTAGCCTA,-0.207
10,TAGCGTAA,0.278
11,AGGACGGG,-0.24
12,AGTATTGC,0.09
13,CTCTGCGC,-0.278
14,GGTACAAC,0.0961
15,CAGAGTTC,-0.172
16,CCCGCTAG,-0.22
17,CGCCTCAC,-0.0221
18,GCTAAAAC,0.1
19,GGTGTCAA,0.0378
20,GAACTTCA,-0.133
21,GAGATAGC,-0.178
22,AGTGCCGA,-0.221

row,Sequence,PBM E-score
1,ATCTTGAA,0.194
2,ACAGGGTC,-0.0681
3,AGGGTACA,0.0701
4,CGTCTTAA,0.121
5,GTTTATGA,0.0604
6,CTTTTACC,0.139
7,CTCTGGCA,-0.338
8,TTCTTCAA,0.0864
9,AATCAGCC,-0.18
10,CTGTTGTC,0.0827
11,TAAGATAA,0.00137
12,CAGTGAGA,-0.154
13,GACAAGAC,0.0885
14,CGCTTTTC,-0.135
15,TCCAAACA,-0.0004
16,CGAAGACG,-0.135
17,AACGTTGT,0.209
18,CGATGTGA,0.105
19,ATACCTGG,-0.252
20,AGCTTCTC,-0.186
21,GAACTTAC,0.205
22,CACATACC,0.151

row,Sequence,PBM E-score
1,GGTGGCGA,-0.151
2,CGGACAAA,-0.0269
3,GTCACGAA,-0.0774
4,AGTCGGTC,-0.248
5,AATGTTAC,0.269
6,CGGTCTTA,-0.135
7,AAAACGGC,0.0572
8,CGGAACAA,-0.0371
9,CTGGACGA,-0.19
10,AGCAAAAT,0.0449
11,CGTGGGCC,-0.085
12,CCTAGGGC,-0.32
13,ATGTGCAG,0.0111
14,CATGAATG,0.189
15,ATTATTAC,0.317
16,ATATCATG,0.101
17,CCTTCTAA,-0.0347
18,CGAATACA,0.39
19,ATGCAGAA,0.0982
20,AGTTTTCC,0.0296
21,AGCTTAAC,0.196
22,GCAGTAAA,-0.0928

row,Sequence,PBM E-score
1,GCTGGCTA,-0.246
2,CCAGCGGG,-0.278
3,ATATGTAG,0.3
4,AAAACACG,0.426
5,TGCGGCAA,-0.154
6,GTAACCAC,0.00247
7,CATACTTC,0.0601
8,CTTCCTTC,-0.325
9,AGAAAGAT,0.078
10,AAACGCTG,0.177
11,ATTAGGGA,-0.122
12,CTATGCTC,-0.27
13,AAGGTGTC,-0.0789
14,ACGGTAGT,-0.178
15,CGCAGGAG,-0.176
16,AATAGGGG,-0.267
17,GCCCACAC,-0.085
18,AGGTACGG,-0.163
19,ACAGGCGG,-0.0817
20,ATGACATG,0.363
21,CAGAGTAG,-0.0538
